Laboratory results taken from PubChem BioAssay AID1508642 (National Center for Advancing Translational Sciences (NCATS), 2021).
Among all 43,000 compounds or so, about 200 (0.47%) were called active. Inconclusive results (about 12%) are left out. The call rests on the fitted dose curve; in most records, active means well fitted cell-killing curve with a large enough effect; inconclusive means small, poorly fitted or top-dose-only effect, or effect the other way; inactive means flat fitted curve, though single readings scatter. This is one part of the list.

test: Cell viability qHTS assay in S16 Pmp22-F2sN cells; conditions: S16 Pmp22-F2sN Schwann cells viability, CellTiter-Glo, 24 h; series mostly up to 57.5 µM; activity change, negative = cytotoxicity: at the top concentration; further: nearly all actives have a fitted effect of over 65% in size
In short: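 Viability was measured by CellTiter-Glo luminescence (15 min, room temperature). This followed 24 h at 37 °C of compound exposure (23 nL pin transfer) in S16 Pmp22-F2sN Schwann cells, 500-1,000 per well.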
On the % scale 0 is the no-effect control and ±100 the full control effect.

SMILES	activity change, negative = cytotoxicity
COc1ccc(C2CC(=O)c3c([nH]c(C(=O)OC4CCC(C)CC4)c3C)C2)cc1OC (stereo not drawn)	inactive: -1.18%
O=C(Nc1ccc(F)c(Cl)c1)N1CCN2CCCCC2C1 (stereo not drawn)	inactive: -2.34%
CCCCN(C(=O)c1cccc(S(=O)(=O)N2CCCCC2)c1)C1CCS(=O)(=O)C1 (stereo not drawn)	inactive: -9%
COc1ccc(-c2nc(CSCC(=O)NCCc3ccc(C)cc3)c(C)o2)cc1OC	inactive: 0.0735%
COC(=O)c1cc2occc2n1CC(=O)Nc1cccc(SC)c1	inactive: 1.89%
CN(C(=O)CSc1nc2ccccc2n1CC(=O)NCc1ccc(F)cc1)c1ccc(F)cc1	inactive: -12%
CCOC(=O)Cn1cc2c(c1-c1ccc(Cl)cc1)c(=O)n(C)c(=O)n2C	inactive: -0.0933%
CCc1noc2nc(C)n(CC(=O)O)c(=O)c12	inactive: 13.3%
Cc1c(C(=O)NCc2ccc(Cl)cc2)sc2nc3n(c(=O)c12)CCCC3	inactive: -25.8%
CCOc1ccc(CNC(=O)c2ccc(NC(=O)c3nsc4ccccc34)cc2)cc1	inactive: -4.76%
CCCCN(Cc1ccccc1)S(=O)(=O)c1ccc2c(c1)CC(C)N2C(=O)CC (stereo not drawn)	inactive: -25.2%
COc1ccccc1Cc1nc2ccccc2nc1SCC(=O)NCCc1ccccc1	inactive: 23.8%
CCN(CC)CCCNC(=O)c1c(C)oc2ncnc(N3CCOCC3)c12	inactive: -4.56%
CCC(=O)Nc1sc2c(c1C(=O)Nc1ccccc1C)CCC(C)C2 (stereo not drawn)	inactive: -21.7%
Cn1c(=O)c2sccc2n2c(CCC(=O)N3CCN(c4ccccc4)CC3)nnc12	inactive: 1.73%
Cc1ccc(-n2nc3ccc(NC(=O)c4cc5ccccc5o4)cc3n2)cc1	inactive: 10.8%
COC(=O)c1ccccc1NC(=O)c1noc2c1CSc1ccccc1-2	inactive: 2.36%
COc1ccc2nc(NC(=O)c3ccc(S(=O)(=O)N4CCC(C)CC4)cc3)sc2c1	inactive: 1.72%
CCOC(=O)c1cccc(NC(=O)NCCc2c(C)nn(C)c2C)c1	inactive: -0.0237%
CCC(Cc1ccccc1)NC(=O)c1oc(=O)c2ccccc2c1-c1ccccc1 (stereo not drawn)	inactive: 1.32%
CC(C)C(=O)Nc1ccc2nc(SCC(=O)N3CCOCC3)sc2c1	inactive: 2.76%

SMILES	activity change, negative = cytotoxicity
Cc1ccc(C)n1-c1nnc(N2CCC(C(=O)NCc3ccc(F)cc3)CC2)s1	inactive: 0.737%
CCOC(=O)c1c(N)n(-c2ccccc2CC)c2nc3ccccc3nc12	inactive: -14.3%
CCOc1ccc(CNC(=O)CCC(=O)N2CC3CCCN3c3ccccc32)cc1 (stereo not drawn)	inactive: 3.38%
COc1ccc(Cl)cc1NC(=O)c1cc(S(=O)(=O)N2CCC(C)CC2)cn1C	inactive: -10.7%
CCN1CCN(C(c2cccc(F)c2)c2c(O)cc(C)n(CCOC)c2=O)CC1 (stereo not drawn)	inactive: 4.05%
CCc1nc2cccnc2n1-c1ccc(CC(=O)Nc2ccccc2Cl)cc1	inactive: -15.1%
Cc1cccc(NC(=O)CSc2nc3c(oc4ccccc43)c(=O)n2Cc2ccco2)c1	inactive: 0.472%
O=S(=O)(c1ccc(Br)cc1)c1nnn2c1nc(NC1CCCCCC1)c1sccc12	inactive: 6.43%
Cc1ccc(N2CC(c3nnc(NC(=O)c4ccco4)s3)CC2=O)cc1Cl (stereo not drawn)	inactive: -9.94%
COc1cc(Cl)c(C)cc1NC(=O)CCn1c(=O)c2cccn2c2cccnc21	inactive: 18.3%
COc1cccc(CNC(=O)C2CCN(S(=O)(=O)c3ccc4c(ccn4C)c3)CC2)c1	inactive: -5.8%
CSc1ccc(C2c3[nH]c4ccccc4c3CCN2C(=O)CCc2ccccc2)cc1 (stereo not drawn)	inactive: 0.108%
Cc1cccc(CCNC(=O)CCS(=O)(=O)c2cc3c(cc2Cl)NC(=O)CO3)c1	inactive: 0.461%
COc1ccc(C)cc1Nc1nc2ccccc2c2nnc(C)n12	inactive: 10.5%
CC(C)c1nc2ccc(C(=O)NCc3ccc(N(C)C)cc3)cc2o1	inactive: 13.2%
Cc1ccc(-n2nc3c(=O)n(CCCC(=O)NCCc4ccccc4)nc(C)c3c2C)cc1	inactive: 5.84%
Cc1ccc(C(=O)Nc2ccc(Br)cc2)cc1S(=O)(=O)N1CCOCC1	inactive: -9.31%
CC(=O)c1cccc(NC(=O)Cn2c(=O)c(CNc3ccc(C)cc3)cc3cc4c(cc32)OCCO4)c1	inactive: 3.07%
COc1ccccc1C(=O)Nc1ccc2nc(N3CCC(C)CC3)cc(C)c2c1	inactive: -3.79%
CCOc1ccccc1NS(=O)(=O)c1c(C)nc2sccn2c1=O	inactive: 3.76%
Cc1ccc(-c2sc(C(=O)Nc3ccc(Br)cc3)cc2CC(=O)O)cc1	inactive: 1.93%

SMILES	activity change, negative = cytotoxicity
CCn1c(=O)c2cc(C(=O)N(CCCOC(C)C)Cc3ccco3)sc2c2ccccc21	inactive: -3.31%
Cc1ccc(CNC(=O)C(=O)NCC(c2cccs2)S(=O)(=O)c2ccc(C)cc2)cc1 (stereo not drawn)	inactive: 6.26%
COC(=O)c1sccc1S(=O)(=O)N(CC(=O)NCc1ccccc1)c1ccccc1	inactive: 25.5%
COc1ccc(NC(=O)CSc2nc3c([nH]c4ccccc43)c(=O)n2C)cc1	inactive: 13%
Nc1c(C(=O)Nc2ccccc2Cl)c2ccccn2c1C(=O)c1ccc(Cl)cc1	inactive: -10.1%
Cc1ccc(CNC(=O)CSc2ncc(S(=O)(=O)c3ccc(Br)cc3)c(=O)[nH]2)cc1	inactive: 19.1%
COc1ccc(NS(=O)(=O)c2ccc3c(c2)C(C(C)C)C(=O)N3)cc1 (stereo not drawn)	inactive: -21.3%
CCc1nn(CC(=O)NCCC(C)C)c(=O)c2cc3occc3n12	inactive: 13.6%
CCn1c(C)c(C2N3CC4(C)CN2CC(CC)(C3)C4=O)c2ccccc21 (stereo not drawn)	inactive: 9.37%
Cc1nn(C(=O)c2ccccc2F)c(C)c1S(=O)(=O)N1CCOCC1	inactive: -6.61%
COc1ccc(Nc2ncnc3c2cnn3-c2ccc(C)cc2C)cc1	inactive: 7.48%
COc1cccc(CC(=O)Nc2ccc3nc(N4CCC(C)CC4)cc(C)c3c2)c1	inactive: 2.42%
Cc1c(C(=O)N2CCC(C)CC2)c(S(=O)(=O)NCc2ccccc2)c(C)n1C	inactive: 5.22%
CCCN1CCN(CCCNC(=O)c2ccc3c(c2)sc2nc(-c4ccc(OC)cc4)cn23)CC1	inactive: 18.4%
CCOC(=O)C1CCN(C(=O)Cn2nc(C)n3c(cc4sccc43)c2=O)CC1	inactive: -0.0148%
Cn1c(SCC(=O)N2CCOCC2)ncc(C(=O)Nc2ccccc2)c1=O	inactive: 0.293%
CC1=C(C(=O)NCc2ccccc2Cl)C2(CCCCCC2)OC1=O	inactive: -13.6%
Cc1ccc2c(CNCC(C)c3ccccc3)c(C(=O)O)n(Cc3ccccc3C)c2c1 (stereo not drawn)	inactive: 8.69%
COc1ccc(NC(=O)c2ccc3c(c2)N(Cc2cccc(Cl)c2)C(=O)c2ccccc2S3=O)cc1Cl (stereo not drawn)	inactive: -18.3%
CC1CCN(c2nc3c(S(=O)(=O)c4ccccc4)nnn3c3ccc(Cl)cc23)CC1	inactive: -19.5%
CCc1ccc(NC(=O)CCn2c(-c3ccc(OC)cc3)cc(C(C)=O)c2C)cc1	inactive: -5.92%
